This passage reports Potency results from PubChem BioAssay (NCATS).

Molecules are shown by their SMILES. Records with an inconclusive call do not appear. Calls come from the whole dose curve; as a rule, active = well fitted cell-killing curve with a large enough effect; inconclusive = small, poorly fitted or top-dose-only effect; inactive = no such curve, though single readings can be large or run the other way. Some compounds were tested as several samples or in several runs, with calls that do not always agree. Certain results were filed several times, with different values. They are shown here; other results are not. There may be further records. Values given together are repeated measurements (runs, samples, wells, individuals or studies). What stands in brackets tells the records apart. The letters are not those of the source and start again with each entry.
Potency is the fitted concentration of half-maximal effect.

The test in a line: qHTS of pediatric cancer cell lines to identify multiple opportunities for drug repurposing: Primary screen for A673 cells (AID 1347092). Note: nearly all actives have a fitted effect of over 45% in size. The settings on record: A673 Ewing sarcoma viability, CellTiter-Glo ATP luminescence, 48 h; series mostly up to 46 µM. An excerpt:
Drug repurposing or repositioning has been offered as a strategy for drug development in oncology programs. This approach has special potential for childhood cancers and other rare or orphan diseases, where the expected return on new drug development has been a disincentive to pharmaceuticals. […] In this project we exploit the poly-pharmacology of drugs to discover new indications via phenotypic screening of a panel of 19 well-characterized cell lines derived from solid tumors seen in children and adolescents. The goal is to identify approved drugs with previously unrecognized anticancer properties that has the potential to reveal new mechanisms and biological processes involved in carcinogenesis or drug resistance. We employed a titration-based paradigm (quantitative high-throughput screening or qHTS), where all compounds were tested at multiple concentrations for their effect on cell viability. Concentration-response curves (CRCs) were derived directly from the primary screen, and both potency and efficacy values were used to identify compounds with robust bioactivity profiles. We screened the NIH Chemical Genomics Center (NCGC) Pharmaceutical Collection (NPC) and Mechanism Interrogation Plate (MIPE) small molecule collections of approved and investigational compounds against these cell lines; and measured metabolically active cells after 48 hours of compound treatment as a proxy for cell viability. […] Assay Submitter: Nathalia J. Martinez, National Center for Advancing Translational Sciences, National Institutes of Health, Rockville, MD, USA; email: natalia.martinez@nih.gov. Shen, M et al. Quantitative high-throughput phenotypic screening of pediatric cancer cell lines identifies multiple opportunities for drug repurposing. Oncotarget 2017 Dec 19;9(4):4758-4772. PMID 29435139.
The cells were obtained from University of North Carolina (UNC), Pediatric Preclinical Testing Program (PPT), and Coriell Institute (CI). qHTS cell viability assay: Cells were assayed in growth media at a density of 500-1,000 cells/well. Five microliters of cells were dispensed into 1,536-well, white, solid-bottom, TC-treated plates (Greiner Bio One) using a multidrop dispenser and incubated at 37 degrees C, 5% CO2, under a humidified atmosphere for 5 hours. Twenty-three nanoliters of compounds and controls (neutral control DMSO or positive control bortezomib at final concentration of 2.3 uM) were subsequently transferred by Kalypsys pintool. For primary screens, the MIPE collection was tested at 11-point dilutions (final concentrations range from 0.78 nM to 46 µM) and the NPC collection at 8-point dilutions (final concentrations range from 0.59 nM to 46 µM). Compounds tested in follow-up screens were assayed at 11-point dilutions. Cells were incubated for 48 hours, followed by addition of 3 uL of CellTiter-Glo (Promega). After a 15min incubation at room temperature, samples were analyzed for luminescence intensity using a ViewLux High-throughput CCD imager equipped with clear filters.
A general note: Quantitative high-throughput screening tests each substance at several concentrations.
With `COc1ccc(C(=O)CC(=O)c2ccc(C(C)(C)C)cc2)cc1`, the Potency entry is “inactive [sample A] and active: 743 nM [sample B]”. For `CCC(=O)O[C@]1(C(=O)SCF)[C@H](C)C[C@H]2[C@@H]3C[C@H](F)C4=CC(=O)C=C[C@]4(C)[C@@]3(F)[C@@H](O)C[C@@]21C`, the Potency entry is “inactive [sample A] and active: 18.7 µM [sample B]”.

As for `Clc1ccccc1CN1CCc2sccc2C1`, the Potency entry was “active: 187 nM [sample A] and inactive [sample B]”.

With `CCOC(=O)[C@H](CCc1ccccc1)N[C@H]1CS[C@H](c2cccs2)CN(CC(=O)O)C1=O`, the Potency result was “active: 590 nM [sample A] and inactive [sample B]”. For the molecule `Cc1nnc(NS(=O)(=O)c2ccc(N)cc2)s1`, the Potency entry is “inactive [sample A] and active: 935 nM [sample B]”. Turning to `CC(C(=O)O)c1ccc2c(c1)CC(=O)c1ccccc1S2` (stereo not drawn), the Potency result is “active: 469 nM [sample A] and inactive [sample B]”. With `CNC1CCCN(c2c(F)cc3c(=O)c(C(=O)O)cn(C4CC4)c3c2OC)C1` (stereo not drawn) the entry was “active: 14.8 µM [sample A] and inactive [sample B]”; with `C[C@@H](CN1CC(=O)NC(=O)C1)N1CC(=O)NC(=O)C1`, “inactive [sample A] and active: 2.96 µM [sample B]”. As to `CC(C)Cn1cnc2c(N)nc3ccccc3c21`, the Potency result is “inactive [sample A] and active: 1.87 µM [sample B]”. In the case of `COc1cnc(NS(=O)(=O)c2ccc(N)cc2)nc1`, the Potency result is “inactive [sample A] and active: 9.35 µM [sample B]”. Consider `COc1cc2c(Nc3ccc(Br)cc3F)ncnc2cc1OCC1CCN(C)CC1`, for which the Potency entry was “active: 18.7 µM [sample A] and inactive [sample B]”.

Consider `O=c1cc(O)c(Cl)c[nH]1`, for which the Potency result is “active: 1.18 µM [sample A] and inactive [sample B]”. For `CC(C)(Sc1cc(C(C)(C)C)c(O)c(C(C)(C)C)c1)Sc1cc(C(C)(C)C)c(O)c(C(C)(C)C)c1`, the Potency entry was “inactive [sample A] and active: 469 nM [sample B]”.
